Some of the results follow.
How the values were obtained:
Assay in all cases: glycan array binding signal (z-score within array); higher = stronger binding
Settings in all cases: glycan notation: IUPAC condensed, linker removed
Fuc(a1-2)Gal = biological target: Fuc(a1-2)Gal
Outline: (§1)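 The binding signal is a Z-score computed within each array. Data were drawn from 3228 arrays in the Consortium for Functional Glycomics database, restricted to those with a known protein sequence. Scores were averaged over arrays of the same protein sequence at different concentrations or buffers, and over linkers, and negative values can be taken as non-binding.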

Fuc(a1-2)Gal(b1-3)GalNAc = biological target: Fuc(a1-2)Gal(b1-3)GalNAc
Outline: as §1

[1] = biological target: Fuc(a1-2)Gal(b1-3)GalNAc(a1-3)[Fuc(a1-2)]Gal(b1-4)Glc
Outline: as §1

[2] = biological target: Fuc(a1-2)Gal(b1-3)GalNAc(a1-3)[Fuc(a1-2)]Gal(b1-4)GlcNAc
Outline: as §1

[3] = biological target: Fuc(a1-2)Gal(b1-3)GalNAc(b1-3)Gal
Outline: as §1

[4] = biological target: Fuc(a1-2)Gal(b1-3)GalNAc(b1-3)Gal(a1-4)Gal(b1-4)Glc
Outline: as §1

[5] = biological target: Fuc(a1-2)Gal(b1-3)GalNAc(b1-4)[Neu5Ac(a2-3)]Gal(b1-4)Glc
Outline: as §1

Fuc(a1-2)Gal(b1-3)GlcNAc = biological target: Fuc(a1-2)Gal(b1-3)GlcNAc
Outline: as §1

[6] = biological target: Fuc(a1-2)Gal(b1-3)GlcNAc(b1-2)Man(a1-3)[Fuc(a1-2)Gal(b1-3)GlcNAc(b1-2)Man(a1-6)]Man(b1-4)GlcNAc(b1-4)GlcNAc
Outline: as §1

[7] = biological target: Fuc(a1-2)Gal(b1-3)GlcNAc(b1-2)Man(a1-3)[Fuc(a1-2)Gal(b1-3)GlcNAc(b1-2)Man(a1-6)]Man(b1-4)GlcNAc(b1-4)[Fuc(a1-6)]GlcNAc
Outline: as §1

[8] = biological target: Fuc(a1-2)Gal(b1-3)GlcNAc(b1-3)Gal(b1-4)Glc
Outline: as §1

[9] = biological target: Fuc(a1-2)Gal(b1-3)GlcNAc(b1-3)GalNAc
Outline: as §1

[10] = biological target: Fuc(a1-2)Gal(b1-3)GlcNAc(b1-3)[Fuc(a1-2)Gal(b1-3)GlcNAc(b1-6)]GalNAc
Outline: as §1

[11] = biological target: Fuc(a1-2)Gal(b1-3)GlcNAc(b1-3)[Gal(b1-4)GlcNAc(b1-6)]Gal(b1-4)Glc
Outline: as §1

[12] = biological target: Fuc(a1-2)Gal(b1-3)GlcNAc(b1-3)[Neu5Ac(a2-6)Gal(b1-4)GlcNAc(b1-6)]Gal(b1-4)Glc
Outline: as §1

[13] = biological target: Fuc(a1-2)Gal(b1-3)GlcNAc6S
Outline: as §1

[14] = biological target: Fuc(a1-2)Gal(b1-3)[Fuc(a1-4)]GlcNAc
Outline: as §1

[15] = biological target: Fuc(a1-2)Gal(b1-3)[Fuc(a1-4)]GlcNAc(b1-2)Man(a1-3)[Fuc(a1-2)Gal(b1-3)[Fuc(a1-4)]GlcNAc(b1-2)Man(a1-3)]Man(b1-4)GlcNAc(b1-4)GlcNAc
Outline: as §1

[16] = biological target: Fuc(a1-2)Gal(b1-3)[Fuc(a1-4)]GlcNAc(b1-2)Man(a1-3)[Fuc(a1-2)Gal(b1-3)[Fuc(a1-4)]GlcNAc(b1-2)Man(a1-6)]Man(b1-4)GlcNAc(b1-4)[Fuc(a1-6)]GlcNAc(b1-4)[Fuc(a1-6)]GlcNAc
Outline: as §1

[17] = biological target: Fuc(a1-2)Gal(b1-3)[Fuc(a1-4)]GlcNAc(b1-3)[Fuc(a1-3)[Gal(b1-4)]GlcNAc(b1-6)]Gal(b1-4)Glc
Outline: as §1

[18] = biological target: Fuc(a1-2)Gal(b1-3)[Fuc(a1-4)]GlcNAc(b1-3)[Gal(b1-4)GlcNAc(b1-6)]Gal(b1-4)Glc
Outline: as §1

Fuc(a1-2)Gal(b1-4)Glc = biological target: Fuc(a1-2)Gal(b1-4)Glc
Outline: as §1

Fuc(a1-2)Gal(b1-4)Glc6S = biological target: Fuc(a1-2)Gal(b1-4)Glc6S
Outline: as §1

Fuc(a1-2)Gal(b1-4)GlcNAc = biological target: Fuc(a1-2)Gal(b1-4)GlcNAc
Outline: as §1

[19] = biological target: Fuc(a1-2)Gal(b1-4)GlcNAc(b1-2)Man
Outline: as §1

[20] = biological target: Fuc(a1-2)Gal(b1-4)GlcNAc(b1-2)Man(a1-3)[Fuc(a1-2)Gal(b1-4)GlcNAc(b1-2)Man(a1-6)]Man(b1-4)GlcNAc(b1-4)GlcNAc
Outline: as §1

[21] = biological target: Fuc(a1-2)Gal(b1-4)GlcNAc(b1-2)Man(a1-3)[Fuc(a1-2)Gal(b1-4)GlcNAc(b1-2)Man(a1-6)]Man(b1-4)GlcNAc(b1-4)[Fuc(a1-6)]GlcNAc
Outline: as §1

[22] = biological target: Fuc(a1-2)Gal(b1-4)GlcNAc(b1-2)[Fuc(a1-2)Gal(b1-4)GlcNAc(b1-4)]Man(a1-3)[Fuc(a1-2)Gal(b1-4)GlcNAc(b1-2)Man(a1-6)]Man(b1-4)GlcNAc(b1-4)GlcNAc
Outline: as §1

[23] = biological target: Fuc(a1-2)Gal(b1-4)GlcNAc(b1-3)Gal(b1-4)GlcNAc
Outline: as §1

[24] = biological target: Fuc(a1-2)Gal(b1-4)GlcNAc(b1-3)Gal(b1-4)GlcNAc(b1-2)Man(a1-3)[Fuc(a1-2)Gal(b1-4)GlcNAc(b1-3)Gal(b1-4)GlcNAc(b1-2)Man(a1-6)]Man(b1-4)GlcNAc(b1-4)GlcNAc
Outline: as §1

B1: SBD-G4S3-SBD (protein)
chain: MASIPSSASVQLDSYNYDGSTFSGKIYVKNIAYSKKVTVVYADGSDNWNNNGNIIAASFSGPISGSNYEYWTFSASVKGIKEFYIKYEVSGKTYYDNNNSANYQVSTGGGGSGGGGSGGGGSEFASIPSSASVQLDSYNYDGSTFSGKIYVKNIAYSKKVTVVYADGSDNWNNNGNIIAASFSGPISGSNYEYWTFSASVKGIKEFYIKYEVSGKTYYDNNNSANYQVST
- glycan array binding signal (z-score) (Fuc(a1-2)Gal): -0.343
- glycan array binding signal (z-score) (Fuc(a1-2)Gal(b1-3)GalNAc): -0.42
- glycan array binding signal (z-score) [1]: -0.338
- glycan array binding signal (z-score) [2]: -0.396
- glycan array binding signal (z-score) [3]: 0.428
- glycan array binding signal (z-score) [4]: -0.316
- glycan array binding signal (z-score) [5]: -0.402
- glycan array binding signal (z-score) (Fuc(a1-2)Gal(b1-3)GlcNAc): -0.343
- glycan array binding signal (z-score) [6]: 2.65
- glycan array binding signal (z-score) [7]: -0.316
- glycan array binding signal (z-score) [8]: -0.249
- glycan array binding signal (z-score) [9]: -0.4
- glycan array binding signal (z-score) [10]: 1.91
- glycan array binding signal (z-score) [11]: -0.417
- glycan array binding signal (z-score) [12]: -0.352
- glycan array binding signal (z-score) [13]: -0.372
- glycan array binding signal (z-score) [14]: -0.402
- glycan array binding signal (z-score) [15]: 1.36
- glycan array binding signal (z-score) [16]: -0.299
- glycan array binding signal (z-score) [17]: -0.29
- glycan array binding signal (z-score) [18]: -0.283
- glycan array binding signal (z-score) (Fuc(a1-2)Gal(b1-4)Glc): -0.372
- glycan array binding signal (z-score) (Fuc(a1-2)Gal(b1-4)Glc6S): -0.342
- glycan array binding signal (z-score) (Fuc(a1-2)Gal(b1-4)GlcNAc): -0.421
- glycan array binding signal (z-score) [19]: -0.306
- glycan array binding signal (z-score) [20]: 2.42
- glycan array binding signal (z-score) [21]: -0.276
- glycan array binding signal (z-score) [22]: 0.803
- glycan array binding signal (z-score) [23]: -0.435
- glycan array binding signal (z-score) [24]: -0.362

Reference: the supplement of paper PMC8728848
